# Data taken from the supplement of paper PMC3334620.
# Over roughly 33,000 sequences, “E-score (-0.5 to 0.5)” has its median near -0.035; the highest 2% begin near 0.35. This is one part of the list.
# Molecular target: T1, Pdr3 (UniProt P33200)
# T1 sequence: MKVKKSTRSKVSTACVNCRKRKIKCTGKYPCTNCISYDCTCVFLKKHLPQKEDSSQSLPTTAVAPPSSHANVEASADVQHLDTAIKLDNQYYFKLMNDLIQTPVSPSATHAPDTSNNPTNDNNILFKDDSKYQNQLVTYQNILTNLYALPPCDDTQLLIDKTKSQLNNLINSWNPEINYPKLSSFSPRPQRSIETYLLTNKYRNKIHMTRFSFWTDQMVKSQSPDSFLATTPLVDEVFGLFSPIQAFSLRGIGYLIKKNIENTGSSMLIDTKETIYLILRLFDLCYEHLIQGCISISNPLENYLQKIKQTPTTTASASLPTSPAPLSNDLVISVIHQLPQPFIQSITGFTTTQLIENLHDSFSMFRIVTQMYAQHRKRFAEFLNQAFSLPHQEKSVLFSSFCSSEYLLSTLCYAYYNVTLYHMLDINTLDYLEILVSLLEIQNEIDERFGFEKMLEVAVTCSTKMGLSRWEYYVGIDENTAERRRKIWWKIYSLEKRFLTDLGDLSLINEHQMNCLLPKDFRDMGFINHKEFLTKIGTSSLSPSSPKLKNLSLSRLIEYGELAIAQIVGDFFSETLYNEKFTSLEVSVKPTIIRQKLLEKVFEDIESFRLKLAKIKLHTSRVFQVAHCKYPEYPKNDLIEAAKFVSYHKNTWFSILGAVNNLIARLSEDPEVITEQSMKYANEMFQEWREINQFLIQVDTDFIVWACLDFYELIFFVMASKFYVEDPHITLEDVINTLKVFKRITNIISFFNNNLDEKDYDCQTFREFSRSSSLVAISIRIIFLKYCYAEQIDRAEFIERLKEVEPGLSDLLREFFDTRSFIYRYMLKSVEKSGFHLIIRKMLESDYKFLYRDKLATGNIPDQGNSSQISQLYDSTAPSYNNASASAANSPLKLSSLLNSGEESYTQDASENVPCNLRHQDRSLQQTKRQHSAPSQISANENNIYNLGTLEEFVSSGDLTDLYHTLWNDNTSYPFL
# Test: PBM E-score (8-mer binding enrichment) (E-score (-0.5 to 0.5)); higher = stronger / more preferred TF binding; most listed sequences are background and not binding sites
# Conditions: protein concentration: 200 nM; construct: GST-full length
# Outline: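 Universal all-10-mer Agilent arrays, double-stranded by primer extension on fresh or once-stripped slides, were probed with about 100-200 nM GST-tagged yeast transcription factors made by PURExpress. Fluorescent anti-GST detected bound protein, and masliner normalised the scans. E-scores from the Universal PBM Analysis Suite were given to each ungapped eight-base word pooled with its reverse complement.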
row,Sequence,PBM E-score
1,CCGCCAGG,-0.0705
2,CAGTGAGC,-0.191
3,TCCTCCCA,0.0109
4,AGGAAGGG,-0.296
5,CTCTAGCA,-0.342
6,AATCTTGG,0.0761
7,CGGCCGTA,0.31
8,ACTGTAGC,-0.197
9,AAAAAAAA,0.147
10,CGCAGGCA,-0.0843
11,ATACGTAA,-0.23
12,CCAACCAG,-0.158
13,CAAATGGG,-0.173
14,GGAGCCAC,-0.0215
15,ACTATTAT,0.0352
16,ACTGGTTC,0.107
17,CCGCTGCG,0.256
18,ATGGTCTC,0.0604
19,ATCGAGCA,0.108
20,CCGACACG,0.0439
21,ATGGGTGA,0.0373
22,CTCTCTAC,-0.161
23,GGGCACCA,-0.0344
24,CGGTCGCA,-0.068
25,GTTCCACA,0.0178

row,Sequence,PBM E-score
1,CACGCCGA,0.181
2,AATCCGGG,0.354
3,ACCCTGTC,-0.0029
4,AGTAAGTA,0.0332
5,CGGTCCCA,0.0844
6,CCGGCGAA,0.341
7,AATAGATA,0.0256
8,GTCACGTA,-0.263
9,CTCGCGAG,0.192
10,AATGTTGT,-0.0708
11,CTCTCCCC,0.106
12,CGTCACGA,-0.0229
13,CGGCTACA,0.00776
14,GCTTTTCA,-0.124
15,AGGCACTC,-0.0926
16,ACACCCTG,-0.0647
17,AATTCTCG,-0.0765
18,CCCCCGTC,-0.0797
19,GGCATCTA,-0.0141
20,GGACGTCA,0.00181
21,ATTCTTAG,-0.206
22,ACAAACTA,-0.0294
23,AGAACGCC,-0.00261
24,AATGTAAT,0.187
25,CCGCGTCC,0.251

row,Sequence,PBM E-score
1,GATTAACC,-0.0685
2,AATGCAAA,-0.0106
3,GGCATGAA,0.0257
4,GCTATCAA,0.0211
5,AGGTTATG,-0.117
6,CGCGCGTA,0.143
7,AACAAATC,-0.01
8,GTCTACCA,-0.252
9,TGTCTCAA,-0.167
10,AGTTCTCA,-0.014
11,TATACCAA,0.00904
12,CGGCGAAG,0.154
13,GTATTGAA,0.0318
14,AAAAAATA,-0.0194
15,TCTGGCAA,0.0125
16,GCTACTCC,0.0101
17,CTGTAAAA,-0.117
18,ACAGTATA,-0.046
19,AGCTCGAT,0.0398
20,GATCTGGA,-0.0186
21,GAAGCTAA,-0.0973
22,AAGCAGCC,-0.0693
23,GGAAACGA,0.106
24,AATGCCAT,0.0798
25,AACCGGTT,0.282

row,Sequence,PBM E-score
1,TCCGCCGA,0.376
2,AGAATTAA,-0.199
3,AACCGGGT,0.229
4,ACACAGAA,0.083
5,CAGGTCAG,0.068
6,GCAGGTCA,-0.137
7,CGTTGAGA,0.0308
8,AGGCTTTC,-0.203
9,ACAACTTG,-0.0885
10,CCTAATGA,-0.116
11,ACTATTGG,-0.164
12,CTATGTCA,-0.105
13,ACACCACA,0.0499
14,ACCCTTGC,-0.147
15,ACGGCAAC,0.0738
16,GATTATGC,0.129
17,GATATAAA,-0.13
18,AAGAACCT,-0.0892
19,CCCGAGCG,0.203
20,ACGCTCTC,-0.0343
21,TCATATGA,0.112
22,GTAATTAA,-0.0507
23,GGTATCTA,0.0155
24,CTAACGTA,-0.154
25,AGAGTGAC,-0.249

row,Sequence,PBM E-score
1,CGCCATCA,-0.0859
2,GGGGTGTA,-0.0995
3,CGGGTTAA,0.292
4,AGCACCTA,-0.139
5,CATGACGG,0.178
6,ATAGGTGC,-0.143
7,TCGTAGAA,-0.203
8,CATTACAG,-0.142
9,AGGCATAG,0.0412
10,CCCCGGCA,0.189
11,CGAGATAA,0.176
12,ATGGAATG,0.184
13,ACTGTATC,-0.197
14,AACGCACC,-0.0303
15,AAAAGGGG,-0.0881
16,GGAAATAA,0.233
17,ATCTTCGC,0.0969
18,ATACAGTC,-0.224
19,TATCCAGA,0.022
20,CCGGGCCG,0.399
21,ACACATGA,-0.236
22,ATAGCGTG,-0.0691
23,ATTGATTC,0.23
24,TCAACTGA,-0.107
25,AAATGGTG,-0.0896

row,Sequence,PBM E-score
1,AGGATAGC,0.0992
2,ACCGTCTG,-0.195
3,AACAGAAC,-0.0207
4,CACCTTAC,-0.118
5,AGGCTCTG,-0.333
6,TAGAAGGA,-0.216
7,GGATGATA,0.0683
8,AACTCTAA,0.00328
9,CTGGCCAG,-0.195
10,CTCTAAAC,-0.201
11,GCGAGCAA,-0.058
12,CATTAGCC,-0.138
13,AGCCGACC,-0.12
14,CCACTGAA,0.133
15,CGTTGAAA,-0.0753
16,ACGAGATG,-0.126
17,GCGTAAAA,0.00747
18,ATGCGATG,-0.078
19,GCTCTCTA,-0.321
20,TCACCAAA,-0.121
21,CTTTTAGC,-0.245
22,AGATCCGA,0.169
23,ATTTCCGC,0.413
24,CGAGAGCA,0.0831
25,AATTTCCC,0.0432

row,Sequence,PBM E-score
1,AGACCGGA,0.254
2,ATCCCCTA,-0.0419
3,AACCGGTC,0.176
4,CTTGAAAA,-0.0857
5,CAGGCTAA,-0.214
6,CGAAAACA,0.0267
7,GTTACCTA,-0.153
8,CGCAAATC,0.0269
9,AAGCCTGT,0.028
10,CGACTGTC,-0.226
11,CGCCGCAC,0.0924
12,CTGCCACA,-0.0927
13,CGCGCCCG,0.23
14,ACGCTCAA,-0.0968
15,AGCACAAG,-0.186
16,AGTAAACT,0.121
17,AAATAGGT,-0.15
18,GCGGACGA,0.333
19,ACCTGAAG,-0.101
20,AGCGCGTA,0.00082
21,TGCATACA,-0.033
22,CGGTACTA,0.152
